From the BET-seq Pho4 binding data (Le et al. 2018)
The other results are listed elsewhere or left out. The energies were worked out here from pooled read counts, against the library average; single values are noisy.

molecular target: T1, Pho4 (S. cerevisiae) (UniProt P07270); assay: relative binding free energy (BET-seq); higher = weaker binding; conditions: reference: library average
T1 sequence: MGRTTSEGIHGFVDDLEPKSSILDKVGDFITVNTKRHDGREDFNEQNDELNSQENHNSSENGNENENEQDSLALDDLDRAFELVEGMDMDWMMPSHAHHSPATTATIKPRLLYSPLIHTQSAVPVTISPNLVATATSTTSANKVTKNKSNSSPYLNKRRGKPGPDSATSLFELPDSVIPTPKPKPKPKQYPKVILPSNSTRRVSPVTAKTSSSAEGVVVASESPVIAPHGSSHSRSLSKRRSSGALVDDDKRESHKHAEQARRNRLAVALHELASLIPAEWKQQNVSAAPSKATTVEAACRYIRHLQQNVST

Sequence	relative binding free energy
TAATTCACGTGAGGTC	0.47 kcal/mol
ATGGGCACGTGTAATA	0.02 kcal/mol
TTTGCCACGTGGGCGA	-0.15 kcal/mol
GTGCTCACGTGGTACG	0.27 kcal/mol
GCGTGCACGTGGGGGC	-0.11 kcal/mol
ATAAACACGTGGTGTC	-0.05 kcal/mol
TTTTGCACGTGTTCGT	0.07 kcal/mol
TTGGCCACGTGGAAGT	0.13 kcal/mol
ATTGGCACGTGTGGTG	-0.03 kcal/mol
AGGGGCACGTGTTGAT	-0.09 kcal/mol
AAGCGCACGTGGGGGT	-0.26 kcal/mol
AGCTGCACGTGAGTTA	0.2 kcal/mol
GTTGGCACGTGTATAA	0 kcal/mol
TTGACCACGTGGATTG	0.03 kcal/mol
AGGTTCACGTGCGTGA	0.29 kcal/mol
ATGGACACGTGTGCAG	0.07 kcal/mol
TAATACACGTGATGGG	0.34 kcal/mol
TCTAGCACGTGATAGG	0.07 kcal/mol
ATATGCACGTGTCGAT	0.08 kcal/mol
CATGACACGTGGGGAG	-0.14 kcal/mol
CGTGGCACGTGAGGCG	0.18 kcal/mol
TTTGACACGTGGTTAA	-0.06 kcal/mol
CGGTGCACGTGCATGG	-0.1 kcal/mol
ATTTGCACGTGAGGGC	0.2 kcal/mol
TCCTTCACGTGGGGTG	0.18 kcal/mol

Sequence	relative binding free energy
TGCGGCACGTGCATAG	-0.15 kcal/mol
GTTGTCACGTGTTACT	0.17 kcal/mol
GGTACCACGTGAGTGG	0.14 kcal/mol
GTAGTCACGTGCATTT	0.12 kcal/mol
GGTAACACGTGATTAT	0.05 kcal/mol
TGGGACACGTGCTGGG	0.03 kcal/mol
TCTGGCACGTGAAGGG	0.25 kcal/mol
TTGGCCACGTGGGAGG	-0.1 kcal/mol
TGAGACACGTGGGGAG	0.01 kcal/mol
CGTTACACGTGGGCGG	-0.02 kcal/mol
TTTGCCACGTGGGATT	-0.06 kcal/mol
GAGCACACGTGGGTAG	-0.06 kcal/mol
GTGATCACGTGGTTGA	0.1 kcal/mol
ATGTTCACGTGGTGTA	0.05 kcal/mol
TCAGTCACGTGGAAGG	0.21 kcal/mol
AGGAACACGTGGGTGA	-0.15 kcal/mol
TGTTTCACGTGATCAT	0.28 kcal/mol
AGTCCCACGTGGGGGG	-0.28 kcal/mol
TTGGCCACGTGTTTAT	-0.1 kcal/mol
ATTTGCACGTGGCGCT	-0.09 kcal/mol
GGGCGCACGTGTCTGG	-0.05 kcal/mol
ATTGGCACGTGACTTG	0.05 kcal/mol
GGGGACACGTGTATTG	0.03 kcal/mol
GAATGCACGTGGAGGA	0.22 kcal/mol
CTGGACACGTGGAGAG	0.08 kcal/mol

Sequence	relative binding free energy
AGGCTCACGTGATTTG	0.28 kcal/mol
AGTGGCACGTGCGTGC	-0.15 kcal/mol
AGCATCACGTGTGTTA	0.14 kcal/mol
TAGATCACGTGTGGCA	0.21 kcal/mol
GGCGGCACGTGGGTCA	-0.22 kcal/mol
AAGTTCACGTGGGTCG	0.25 kcal/mol
TGTAGCACGTGACTGG	0.01 kcal/mol
CTGGGCACGTGGCGGG	-0.13 kcal/mol
ATAAGCACGTGAGGAG	0.13 kcal/mol
TTGGGCACGTGTCTAG	-0.19 kcal/mol
TGGCGCACGTGAAGGA	0.04 kcal/mol
ATTGCCACGTGTGGGT	0 kcal/mol
GCAATCACGTGGTTGT	0.06 kcal/mol
CGCAGCACGTGGTGTG	-0.16 kcal/mol
GGAAGCACGTGGTGAG	-0.07 kcal/mol
TTATGCACGTGGCGTA	-0.16 kcal/mol
TTACTCACGTGAGGTG	0.22 kcal/mol
CGGATCACGTGTGCTT	0.22 kcal/mol
TTCTCCACGTGTTATT	0.14 kcal/mol
ATTGTCACGTGGGAGT	0.05 kcal/mol
AGGGGCACGTGTAAGA	0.06 kcal/mol
GGGTACACGTGGTACA	0.08 kcal/mol
TAAGGCACGTGGAGGC	-0.13 kcal/mol
TCCGTCACGTGTTGGT	0.02 kcal/mol
TGTTCCACGTGAATTT	0.22 kcal/mol

Sequence	relative binding free energy
TAGGACACGTGGTAAA	0.15 kcal/mol
TTGATCACGTGTCTGA	0.13 kcal/mol
GTACGCACGTGAAGGT	0.23 kcal/mol
ATCTACACGTGGGTGG	0 kcal/mol
CCGGGCACGTGGGGAG	-0.37 kcal/mol
GGGGCCACGTGTGGCT	0.01 kcal/mol
TTGGCCACGTGGTGTG	-0.22 kcal/mol
GGGCCCACGTGGTAGG	-0.12 kcal/mol
CATAACACGTGTGGGT	0.07 kcal/mol
ATTCGCACGTGATTTT	0.05 kcal/mol
TATGTCACGTGTTATG	0.04 kcal/mol
TCTGGCACGTGAGGAG	0.1 kcal/mol
ATTGACACGTGGATCG	0.09 kcal/mol
TGTTACACGTGGCATG	0 kcal/mol
ACGTGCACGTGTGTTA	0.06 kcal/mol
AGCTGCACGTGTTGTT	-0.18 kcal/mol
GAGGGCACGTGGTTGA	-0.1 kcal/mol
CGGTTCACGTGTGATT	0.31 kcal/mol
CTAGGCACGTGTGGCA	-0.07 kcal/mol
TTATCCACGTGCGGGT	-0.1 kcal/mol
TAGTGCACGTGCGCGT	-0.12 kcal/mol
TTAGGCACGTGCAAGT	0.04 kcal/mol
GACGTCACGTGTGGGA	0.27 kcal/mol
GTCTGCACGTGTGATG	0.1 kcal/mol
GGATGCACGTGTAGGC	-0.13 kcal/mol

Sequence	relative binding free energy
TAACACACGTGTGTTA	0.15 kcal/mol
GATTGCACGTGTGTTC	0.18 kcal/mol
TAGTGCACGTGAAAGT	0.19 kcal/mol
ATTGTCACGTGGGTGT	-0.07 kcal/mol
AGGGGCACGTGCGTTA	-0.17 kcal/mol
GTACTCACGTGGTTCG	0.28 kcal/mol
AGTTACACGTGGTGCT	0.09 kcal/mol
GGGTCCACGTGAGTGT	0.41 kcal/mol
TATTGCACGTGTTAGA	0 kcal/mol
TCAAGCACGTGGTTGG	-0.08 kcal/mol
TACATCACGTGAGGGT	0.38 kcal/mol
TATAGCACGTGTCGTG	-0.15 kcal/mol
CGGTGCACGTGAAAGG	0.22 kcal/mol
GGATTCACGTGGGGAA	0.34 kcal/mol
ATGGGCACGTGCATAT	-0.27 kcal/mol
TGTATCACGTGGGATA	0.07 kcal/mol
GTGCGCACGTGTGAGG	-0.04 kcal/mol
TTAAGCACGTGGCGTG	-0.25 kcal/mol
CTGTGCACGTGCTGGA	-0.09 kcal/mol
TACTTCACGTGTTGGG	0.36 kcal/mol
GGGCGCACGTGGGAGT	-0.29 kcal/mol
GTCGACACGTGGGGGT	-0.04 kcal/mol
GTTACCACGTGGTAGG	-0.23 kcal/mol
TGAAGCACGTGGAGGC	-0.05 kcal/mol
ATTATCACGTGTTAGA	0.13 kcal/mol

Sequence	relative binding free energy
AGTCTCACGTGAAGGG	0.27 kcal/mol
TGATGCACGTGTTTAT	0.02 kcal/mol
TGAGTCACGTGAATAG	0.42 kcal/mol
AGGTTCACGTGGGACG	0.19 kcal/mol
GAAGGCACGTGAGATG	0.12 kcal/mol
TCTTACACGTGTCGGT	0.09 kcal/mol
TGGGGCACGTGTATGG	-0.17 kcal/mol
GTGCTCACGTGAGGAG	0.28 kcal/mol
ATATTCACGTGGGTAT	0.16 kcal/mol
CATTACACGTGTATTA	0.24 kcal/mol
GGGTTCACGTGTGATA	0.43 kcal/mol
TGTCACACGTGAGGCG	0.36 kcal/mol
TGATGCACGTGGCTAG	-0.02 kcal/mol
TCGCGCACGTGGTGGG	-0.14 kcal/mol
TTTTCCACGTGTAATT	0.27 kcal/mol
TTTGTCACGTGAAGGC	0.2 kcal/mol
GGATGCACGTGGTCTA	-0.07 kcal/mol
GAGAGCACGTGAAGGC	0.34 kcal/mol
GGAATCACGTGGTCGG	0.15 kcal/mol
GATAACACGTGTGGTT	0.08 kcal/mol
TTTGACACGTGTATGG	0.06 kcal/mol
